{
  "source": "PubChem BioAssay AID686979",
  "about": "(National Center for Advancing Translational Sciences (NCATS), 2013)",
  "note": "About 50,000 (12%) of roughly 420,000 compounds were called active. The inconclusive results got no clear call from the source; some entries with a clear call stand among them for comparison. Calls follow the shape of the dose curve; as a rule, active = well fitted inhibition curve with a large enough effect; inconclusive = small, poorly fitted or top-dose-only effect; inactive = flat fitted curve, though single readings scatter. Potencies of inconclusive entries are left out as doubtful fits. % is scaled to controls: 0 for no effect and ±100 for the full control effect; potency is read from the fitted curve at half-maximal effect; tags tell the direction and shape of the fitted curve.",
  "data": [
    {"test": "qHTS for Inhibitors of human tyrosyl-DNA phosphodiesterase 1 (TDP1): qHTS in cells in presence of CPT; also: nearly all actives have a fitted effect of over 55% in size", "settings": "chicken DT40 Tdp1-/-;hTDP1 cells + 20 nM CPT, ATP luminescence, 48 h; activity change, negative = growth inhibition: at 46.2 µM (top of the series) unless noted", "summary_of_the_method": "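Chicken DT40 Tdp1-/- cells complemented with human TDP1, 400 cells/well, exposed to compounds plus 20 nM camptothecin for at least 48 h at 37 C; viability read as ATP content by CellTiter-Glo luminescence.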", "values": [
      {"compound": "CCOC(=O)Cc1csc(N/N=C\\c2cccc(Br)c2)n1", "Potency": "active: 13 µM"},
      {"compound": "COc1cc(C2C(C#N)=C(N)N(Nc3ccccc3)C3=C2C(=O)CC(C)(C)C3)ccc1OCc1cccc(F)c1", "note": "(stereo not given)", "Potency": "inconclusive [inhibitor, partial curve, poor fit]"},
      {"compound": "COc1ccc2oc(=O)c(-c3csc(Nc4cccc(O)c4)n3)cc2c1", "Potency": "inconclusive [inhibitor, single point]"},
      {"compound": "Cc1ccc(C2c3c(oc4cc(C)c(C)cc4c3=O)C(=O)N2CCCN2CCOCC2)cc1", "note": "(stereo not given)", "Potency": "inconclusive [inhibitor, single point]"},
      {"compound": "CN(C(=O)COC(=O)c1cc([N+](=O)[O-])ccc1N1CCOCC1)C1CCCCC1", "activity change, negative = growth inhibition": "inactive: -17%"},
      {"compound": "COc1ccc(NC(=O)Cn2cnc3c(cnn3C(C)(C)C)c2=O)cc1OC", "activity change, negative = growth inhibition": "inactive: 3.76%"},
      {"compound": "Cc1cccc(NC(=S)Nc2ccc(Br)cc2)c1", "Potency": "inconclusive [inhibitor, single point]"},
      {"compound": "O=C(/C=C/c1ccccc1)Nc1cc(S(=O)(=O)N2CCOCC2)ccc1N1CCCC1", "activity change, negative = growth inhibition": "inconclusive: -21.6% [inhibitor]"},
      {"compound": "COc1ccc2c(c1)CC(C(=O)NCCN1CCN(c3cccc(Cl)c3)CC1)CO2", "note": "(stereo not given)", "Potency": "active: 16.4 µM"},
      {"compound": "CCCc1ccc(OCC(=O)Nc2scc(-c3cccs3)c2C(=O)OC)cc1", "Potency": "inconclusive [inhibitor, single point]"},
      {"compound": "CC(=O)OCc1c(-c2ccccc2)c2cc([N+](=O)[O-])ccc2n1C", "Potency": "active: 3.66 µM"},
      {"compound": "COc1ccc(C(CNC(=O)CN2C(=O)NC(C)(c3ccc4ccccc4c3)C2=O)N2CCCC2)cc1", "note": "(stereo not given)", "Potency": "inconclusive [inhibitor, single point]"},
      {"compound": "CC(Sc1ccccn1)C(=O)Nc1ccc(S(N)(=O)=O)cc1", "note": "(stereo not given)", "Potency": "inconclusive [inhibitor, single point]"},
      {"compound": "COc1ccc(C(=O)Nc2ccc(C(=O)OCC(=O)c3cccc4ccccc34)cc2)cc1", "Potency": "inconclusive [inhibitor, single point]"},
      {"compound": "CCCCCn1c(CN2CCN(Cc3ccccc3)CC2)nc2c1c(=O)n(C)c(=O)n2C", "Potency": "active: 14.6 µM"},
      {"compound": "COC(=O)c1ccc2nc(-c3ccccc3)c(Cc3cccc(F)c3)n2c1", "Potency": "inconclusive [inhibitor, single point]"},
      {"compound": "CCN(Cc1ccccc1)S(=O)(=O)c1cc2c3c(c1)CCN3C(=O)CC2", "activity change, negative = growth inhibition": "inactive: -22%"},
      {"compound": "O=C(Oc1ccc2c(-c3ccccc3)cc(=O)oc2c1)C1CCCCC1", "Potency": "inconclusive [inhibitor, single point]"},
      {"compound": "CC(=O)Nc1cccc(C(=O)NNC(=O)c2ccc(-n3cnnn3)cc2)c1", "activity change, negative = growth inhibition": "inactive: -12.5%"},
      {"compound": "Cc1ncsc1CCC(=O)N1CCCC(C(=O)c2cccc(Cl)c2)C1", "note": "(stereo not given)", "Potency": "inconclusive [inhibitor, single point]"},
      {"compound": "CC(NC(=O)c1cccs1)C1CCCO1", "note": "(stereo not given)", "activity change, negative = growth inhibition": "inactive: 20.2%"},
      {"compound": "O=c1[nH]c(=O)c2nnc(N/N=C\\c3ccc(O)cc3)nc2[nH]1", "activity change, negative = growth inhibition": "inactive: 20%"},
      {"compound": "NC(=O)NC1NC(=O)NC1=O", "note": "(stereo not given)", "Potency": "inactive"},
      {"compound": "COC(=O)Nc1nc(-c2ccccc2)c(C(=O)c2ccc(Cl)cc2)s1", "Potency": "active: 0.58 µM"},
      {"compound": "Fc1ccccc1C(c1nnnn1Cc1ccc2c(c1)OCO2)N1CCN(Cc2ccccc2)CC1", "note": "(stereo not given)", "Potency": "active: 14.6 µM"},
      {"compound": "O=C(NCc1ccccc1)C(c1ccccc1)N(C(=O)c1csnn1)c1ccc(F)cc1", "note": "(stereo not given)", "Potency": "inconclusive [inhibitor, single point]"},
      {"compound": "Cc1ccc(S(=O)(=O)N2CCOCC2)cc1C(=O)OCC(=O)NCCc1ccc(F)cc1", "activity change, negative = growth inhibition": "inactive: -21.8%"},
      {"compound": "COc1ccc(CN(C)CC(=O)Nc2ccc(Cl)cc2C(F)(F)F)c(OC)c1", "Potency": "active: 20.6 µM"},
      {"compound": "O=C(N[C@H](CO)Cc1ccccc1)c1ccco1", "activity change, negative = growth inhibition": "inactive: -11.9%"},
      {"compound": "OC1c2cc(Cl)ccc2-c2c(Cl)cc(Cl)cc21", "note": "(stereo not given)", "Potency": "inconclusive [inhibitor, single point]"},
      {"compound": "NC(=O)c1ccsc1NC(=O)c1coc2ccccc2c1=O", "Potency": "inconclusive [inhibitor, single point]"},
      {"compound": "O=c1c2c3c(sc2n2cnnc2n1Cc1ccccc1)CN(Cc1ccccc1)CC3", "Potency": "active: 16.4 µM"},
      {"compound": "Cc1ccc(CNC(=O)c2sc3nc4n(c(=O)c3c2C)CCCC4)cc1", "Potency": "inconclusive [inhibitor, single point]"},
      {"compound": "NC(=O)C1CC(=O)N(c2ccc(OCc3ccc(Cl)cc3Cl)cc2)C1", "note": "(stereo not given)", "activity change, negative = growth inhibition": "inactive: -24.9%"},
      {"compound": "CNc1nc(-c2ccc3c(c2)CCN3C(=O)CC(C)(C)C)c(C)s1", "Potency": "inconclusive [inhibitor, single point]"},
      {"compound": "O=C(NCc1ccc(OC(F)(F)F)cc1)C1CC(c2ccccc2C(F)(F)F)=NO1", "note": "(stereo not given)", "Potency": "inconclusive [inhibitor, single point]"},
      {"compound": "Cc1ccc(C)c(-c2nnc(NC(=O)C3=COCCO3)o2)c1", "activity change, negative = growth inhibition": "inactive: -12.9%"},
      {"compound": "O=C(NC(=S)N1CCN(c2c(Cl)cccc2[N+](=O)[O-])CC1)c1cccs1", "Potency": "inconclusive [inhibitor, single point]"},
      {"compound": "COc1cc2ncc(S(=O)(=O)c3ccccc3)c(N3CCCC(C)C3)c2cc1OC", "note": "(stereo not given)", "Potency": "inconclusive [inhibitor, single point]"},
      {"compound": "CC(=O)c1c(C)[nH]c(C(=O)OCC(=O)N(Cc2ccccc2)C(C)(C)C)c1C", "Potency": "inconclusive [inhibitor, single point]"},
      {"compound": "Cc1ccc(C)c(NC(=O)CCc2nc(-c3ccc(C(C)(C)C)cc3)no2)c1", "Potency": "active: 23.1 µM"},
      {"compound": "COc1cc(NC(=O)c2ccc(Cl)cc2)c(OC)cc1Cl", "Potency": "inconclusive [inhibitor, single point]"},
      {"compound": "COc1ccccc1NCN1C(=O)CCC1=O", "Potency": "inconclusive [inhibitor, single point]"},
      {"compound": "COc1ccc(C(=O)Nc2nnc(SCC(=O)NCc3ccco3)s2)c(OC)c1", "Potency": "inconclusive [inhibitor, single point]"},
      {"compound": "CCN1CCCC1CNC(=O)CSCc1nc(-c2ccccc2C)oc1C", "note": "(stereo not given)", "activity change, negative = growth inhibition": "inconclusive: -30.6% [inhibitor]"},
      {"compound": "NNC(=O)c1nc2ccccc2s1", "activity change, negative = growth inhibition": "inconclusive: -14.4% [inhibitor]"},
      {"compound": "COc1cc(CNC(=O)CSCc2nc3cccnc3n2C2CCCCC2)cc(OC)c1OC", "Potency": "inconclusive [inhibitor, single point]"},
      {"compound": "CC(Oc1cc(F)ccc1[N+](=O)[O-])C(=O)Nc1ccc(S(=O)(=O)N2CCCC2)cc1", "note": "(stereo not given)", "Potency": "inconclusive [inhibitor, single point]"},
      {"compound": "CCOn1c(SC(C)C)nc2ccccc2c1=O", "activity change, negative = growth inhibition": "inactive: -7.27%"},
      {"compound": "O=C(Nc1ccon1)c1ccc(Cl)c(S(=O)(=O)N2CCCCC2)c1", "Potency": "inconclusive [inhibitor, single point]"},
      {"compound": "C(=C\\c1ccccc1)/CN1CCN(C(c2cccs2)c2nnnn2C2CCCC2)CC1", "note": "(stereo not given)", "Potency": "inconclusive [inhibitor, single point]"},
      {"compound": "Cc1ccc(S(=O)(=O)N2CCN(c3ccccc3)CC2)cc1C", "activity change, negative = growth inhibition": "inactive: 4.16%"},
      {"compound": "Cc1c(CC(=O)O)c(=O)oc2c(C)c3occ(-c4ccc(Br)cc4)c3cc12", "activity change, negative = growth inhibition": "inactive: -8.32%"},
      {"compound": "COc1cc(/C=C(\\C#N)C(=O)N2CCc3ccccc32)ccc1O", "Potency": "inconclusive [inhibitor, single point]"},
      {"compound": "O=C(NCc1ccco1)c1n[nH]c(=O)c2ccccc12", "Potency": "inconclusive [inhibitor, partial curve]"},
      {"compound": "CCc1nc2c(OCc3cccc(OC)c3)cccn2c1N(C)C(=O)C(C)C", "Potency": "inconclusive [inhibitor, single point]"},
      {"compound": "CCCCCCCCCCCC1=C(O)C(=O)C=C(O)C1=O", "Potency": "inconclusive [inhibitor, single point]"},
      {"compound": "CC(C)=C1C2CCC1C1C(=O)N(c3ccc4c(c3)OCO4)C(=O)C21", "note": "(stereo not given)", "activity change, negative = growth inhibition": "inactive: -5.04%"},
      {"compound": "CC1(C)N(OCc2ccccc2)C(=O)C(=O)N(OCc2ccccc2)C1(C)C", "Potency": "inconclusive [inhibitor, single point]"},
      {"compound": "CN(C)CC1CC/C(=C\\c2ccc(O)cc2)C1=O", "note": "(stereo not given)", "Potency": "active: 0.58 µM"},
      {"compound": "CN(C)CCCn1c(SCC(=O)N2c3ccccc3Sc3ccccc32)nc2ccccc2c1=O", "Potency": "inconclusive [inhibitor, single point]"},
      {"compound": "S=c1[nH]nc(Cc2cccs2)n1-c1ccccc1Cl", "activity change, negative = growth inhibition": "inactive: 15.5%"},
      {"compound": "O=C(OCc1cccc(C(F)(F)F)c1)c1cc([N+](=O)[O-])ccc1N1CCOCC1", "Potency": "inconclusive [inhibitor, single point]"},
      {"compound": "CC1=C(O)C(=O)C(C2=C(O)C(=O)C(C)=C(O)C2=O)=C(O)C1=O", "activity change, negative = growth inhibition": "inactive: -16%"},
      {"compound": "COc1ccc(-c2cc3ccccc3n2CC(O)CNCCO)cc1", "note": "(stereo not given)", "Potency": "active: 23.1 µM"},
      {"compound": "C/C(=N\\Nc1ccc(Cl)cc1)c1c(O)cc(C)oc1=O", "activity change, negative = growth inhibition": "inactive: -2.47%"},
      {"compound": "CC(=NNC(=S)N1CCCCC1)c1cccc(C)n1", "Potency": "active: 0.0092 µM"},
      {"compound": "CC1CCN(C(=O)CSc2nc(-c3ccc(C(C)C)cc3)no2)CC1", "Potency": "active: 20.6 µM"},
      {"compound": "CC(C(=O)NCc1ccccc1)N1Cc2ccccc2C1=O", "note": "(stereo not given)", "activity change, negative = growth inhibition": "inactive: 7.47%"},
      {"compound": "O=[N+]([O-])c1ccc(SCc2ccco2)cc1N1CCOCC1", "Potency": "inconclusive [inhibitor, single point]"},
      {"compound": "Cc1ccc(C(=O)Nc2ccc3c(c2)N(C)C(=O)c2ccccc2S3)cc1", "Potency": "active: 5.17 µM"},
      {"compound": "COc1ccc2cc(C(C)C(=O)N3CCC(C(N)=O)CC3)ccc2c1", "note": "(stereo not given)", "activity change, negative = growth inhibition": "inactive: -10.5%"},
      {"compound": "Cc1noc(C)c1S(=O)(=O)Nc1ccc2c(c1)C(=O)N([C@H](C)CO)C[C@H](C)[C@@H](CN(C)C(=O)NC1CCCCC1)O2", "activity change, negative = growth inhibition": "inactive: -0.57%"},
      {"compound": "O=C1c2cccc3cc([N+](=O)[O-])cc(c23)C(=O)N1CCN1CCCC1", "Potency": "active: 0.206 µM"},
      {"compound": "Oc1ccc(/C=N/Nc2ccnc3cc(Cl)ccc23)c(O)c1", "Potency": "inconclusive [inhibitor, single point]"}
    ]}
  ]
}
